The values below come from PubChem BioAssay (NCI).

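Growth conditions: 96-well plates. Treatment: test compound, 48 hours, 5 concentrations. Analysis: linear interpolation between bracketing concentrations; unreached endpoints set to highest concentration. The concentration for 50% growth inhibition is given as GI50. TGI: total growth inhibition.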 Some results are limits rather than exact numbers.

The test system of this assay is NCI-H322M lung. Nature of the assay: DTP human tumour cell line panel, 48 h.
A word on the GI50: it is the concentration giving 50% growth inhibition. As usually defined, the TGI is the concentration giving total growth inhibition. Low values mean more potent growth arrest, high ones less potent growth arrest. Regarding `FC(F)(F)c1cccc(Nc2nc3ccccc3nc2Nc2cccc(C(F)(F)F)c2)c1`, the GI50 was 3.04 µM and the TGI was 14.3 µM. As for `COC(=O)C12CCC(C(F)(F)C1=O)C2(C)C` (stereo not drawn), the TGI was above 100 µM. As for `CCOC(=O)C1C(=O)C(C(=O)OCC)C(c2ccccc2)N(C)C1c1ccccc1` (stereo not drawn), the total growth inhibition concentration (TGI) is above 100 µM.

The compound `O=C(CC1(O)C(=O)Nc2c(Cl)cc(Cl)cc21)c1ccco1` (stereo not drawn) gave a total growth inhibition concentration (TGI) above 100 µM. Turning to `CC(C)[C@]12O[C@H]1[C@@H]1O[C@]13[C@]1(O[C@H]1C[C@H]1C4=C(CC[C@@]13C)C(=O)OC4)[C@@H]2OC(=O)CN(C)C`, the GI50 is 0.0254 µM and the TGI is above 100 µM. For the compound `CC(=O)N=C1C=C(NC(C)=O)C(=O)c2ccccc21`, the concentration for total growth inhibition (TGI) came out at 26.7 µM. Same read-out and setting: the same measure for `COc1cc(OC)cc(C(=O)NC2=C(Cl)C(=O)c3ccccc3C2=O)c1`: 20 µM; for `CCC1=C(c2ccc(OC)cc2)CC[C@@]2(CCNC2=O)[C@@H]1C`: above 100 µM. Regarding `Cc1ccc(C2=C(c3ccc(C)cc3)C3(c4ccc(C)cc4)[C@@H](C#N)[C@H](C#N)C2(c2ccc(C)cc2)S3=O)cc1` (stereo partly drawn), the GI50 was above 100 µM and the total growth inhibition concentration (TGI) is above 100 µM. On to `CNC(=O)N(C1=NCC(C)S1)c1ccc(C)c(C)c1` (stereo not drawn), for which the TGI is above 100 µM. Regarding `COc1ccc(S(=O)(=O)Nc2cc(/C=C\c3cc(OC)c(OC)c(OC)c3)cc(OC)c2OC)cc1`, the 50% growth inhibitory concentration (GI50) was 0.0553 µM and the concentration for total growth inhibition (TGI) was above 100 µM. In turn, `CC(C)C(Br)CC/C(CBr)=C(\Cl)CCl` (stereo not drawn) had a concentration for total growth inhibition (TGI) of 27.9 µM. `COc1ccc(/C=C/C(=O)c2cccc(B(O)O)c2)cc1O`: the GI50 was 10.3 µM and the TGI came to 24.6 µM. Turning to `O=C1CC(c2ccccc2Cl)Oc2ccccc21` (stereo not drawn), the TGI is above 100 µM. The compound `NC(CSS(=O)(=O)c1ccccc1)C(=O)O` (stereo not drawn) returned a TGI above 10 µM. Take `COc1ccc2nc3cc(Cl)ccc3c(NCCCCCN3CCCCC3)c2c1`: the GI50 was 0.082 µM and the TGI worked out at 3.32 µM. `CCOP(=O)(OCC)/C(C#N)=C/c1cnc(C)[nH]1`: the TGI is above 100 µM.

`CCCCCCC[C@@H](O)CC(=O)NC(CC(C)C)C(=O)NC(CCC(=O)O)C(=O)NC1C(=O)NC(C(C)C)C(=O)NC(CC(C)C)C(=O)NC(CO)C(=O)NC(CC(C)C)C(=O)NC(CO)C(=O)NC(C(C)CC)C(=O)OC1C` (stereo partly drawn) yielded a TGI of 27.3 µM.

For `COc1cccc([C@@]2(O)c3c(ccc(O)c3OC)[C@H]2OC)c1OC`, the TGI is above 100 µM. Still for that read-out and setting: the same measure for `CC(=O)OCC1OC(n2c(-c3cccs3)c3c(c(C#N)c2=S)-c2ccccc2CC3)C(OC(C)=O)C(OC(C)=O)C1OC(C)=O` (stereo not drawn): above 100 µM; for `COc1cccc2c(Nc3ccc(S(=O)(=O)Nc4ncccn4)cc3)c3ccc([N+](=O)[O-])cc3nc12`: above 100 µM.

As for `CCc1n[nH]c(=O)n1NC(=O)CCCC(=O)O`, the concentration for total growth inhibition (TGI) is above 100 µM.

As for `CNc1nc(SC)nc2c1c(N)nn2C`, the total growth inhibition concentration (TGI) is above 100 µM. As for `Cc1cc(C)c2cc(N)c(Cl)nc2n1`, the TGI is above 100 µM. On the same count and under the same terms, the same measure for `Nc1nc2c(nc(N)n2Cc2ccccc2)c(=O)[nH]1`: above 100 µM. Take `Cc1nc2cc(-n3c(-c4ccc(F)cc4)nc4ccccc4c3=O)ccc2n1Cc1ccccc1`: the GI50 is 4.89 µM and the TGI turned out to be 24.8 µM. Regarding `Cn1c(=O)c2c(nc3sc4nc5ccccc5nc4n32)n(C)c1=O`, the TGI is above 100 µM. In the case of `Cc1cccc(C)c1NC(=O)/C(Cc1nc2ccc([N+](=O)[O-])cc2[nH]c1=O)=N\NC(N)=O`, the total growth inhibition concentration (TGI) was above 100 µM. In the case of `CC(=O)OC/C=C(\C)CCC(Br)C(C)(C)Br` (stereo not drawn), the total growth inhibition concentration (TGI) was above 10 µM. For `O=C1OCC2=C1C(c1cccc(Cl)c1)c1cc3c(cc1N2CCO)OCO3` (stereo not drawn), the GI50 was 0.738 µM and the TGI was above 94.8 µM. In turn, `O=C(Nc1ccn(CCOC(=O)c2ccccc2)c(=O)n1)c1ccccc1` showed a TGI above 100 µM. Consider `Cn1cc(C2=C(c3cn(CCSC(=N)N)c4ccccc34)C(=O)NC2=O)c2ccccc21`, for which the GI50 is 3.98 µM and the total growth inhibition concentration (TGI) was 8.64 µM. In the case of `COc1ccc(C(=O)/C=C2\C(=O)Nc3ccc(Br)cc32)cc1`, the TGI is 32.4 µM. The same measure, in the same setting: the same measure for `C/C(O)=C/c1nc2ccccc2[nH]1`: above 100 µM.
